Publication PMC12136788
Some of the results follow.

T1: UNK ZnF1-6 (called full-length) (human, UniProt Q9C0B0 30-357)
T1 sequence: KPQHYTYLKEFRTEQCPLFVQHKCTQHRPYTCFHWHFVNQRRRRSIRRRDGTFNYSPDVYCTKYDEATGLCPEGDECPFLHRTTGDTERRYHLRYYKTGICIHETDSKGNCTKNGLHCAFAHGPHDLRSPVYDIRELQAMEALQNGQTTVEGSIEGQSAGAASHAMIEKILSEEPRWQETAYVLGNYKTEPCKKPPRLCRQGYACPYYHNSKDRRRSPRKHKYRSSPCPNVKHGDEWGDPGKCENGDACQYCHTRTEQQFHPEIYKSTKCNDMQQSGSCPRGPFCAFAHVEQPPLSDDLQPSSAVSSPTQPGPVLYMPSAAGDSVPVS

B1: chr4:113382420:113382521:+|3pUTR|ENSG00000145362|msi1|total|mutant (ssRNA)
RNA: GGGAGUUCUACAGUCCGACGAUCUCUUCAGGUCUUCCGAUCUUGGACAAGUUGGCAGGGUAUUUUAAAAGCUAUAACUACUGCCGUUUUCCAGUUUUCAUUGCUGCUUCCGCAAACCACGCUGUCUUACAGUGGUACUUUCUUCAACAGAGGAUUGAGCAUCA
B2: chr16:46660370:46660459:-|3pUTR|ENSG00000069329|msi1_unk|total|mutant (ssRNA)
RNA: GGGAGUUCUACAGUCCGACGAUCAAAAGGAAACCGCUCACCAUACUCCUUUCCAUGUACAUCCAGUGAGGGUUUUAUUACGCCCGGUUUCCCUUCCACCGAUUGUGCCUUUCAGAAAUGCUGAGGCCGGUUUCCCAUUUCUUACAACAGAGGAUUGAGCAUCA
B3: chr8:18872320:18872424:-|CDS|ENSG00000156011|unk|total|mutant (ssRNA)
RNA: GGGAGUUCUACAGUCCGACGAUCGCCAGAAUCAUUUCCGGAACAUUACAGGCUACAAAGGUACUGGACCAAGAUGCUGUUUCCCGUUUUUCAGUUCAGCAGGUGGAAAAAGAGCUGGACACUGCCAGUCGUAAAACACAGAGACAACAGAGGAUUGAGCAUCA
B4: ENSG00000163636:stop:overlap|stop_codon|ENSG00000163636|stop_codon|NA|stop_codon (ssRNA)
RNA: GGGAGUUCUACAGUCCGACGAUCUCUUCCAAUCAUUAGGGAACUGUCCAGGUUUAUUGCUGCCGGGAGACUACACUGCAAAAUAGAUAAAGUGAAUGAAAUAGUAGAAACCAACAGACCUGAUAGCAAGAACUGGCAGUACCACAACAGAGGAUUGAGCAUCA
B5: chr5:141515046:141515147:-|3pUTR|ENSG00000131504|msi1_unk|FALSE|overlapping (ssRNA)
RNA: GGGAGUUCUACAGUCCGACGAUCAAAAAGAGAGAGAGAGAGAGGUGUGAGGGACAAAAUGCAAACCUAUUUCCCUUGCCUCAUAGGCUUCUGGGAUGUCAUCACCUCCAGUUUGUUGGUUUUGUUUCCAACUGUUAAUAAAGCCAACAGAGGAUUGAGCAUCA
B6: chr20:49372985:49374992:-|CDS|ENSG00000158445|control|control|control (ssRNA)
RNA: GGGAGUUCUACAGUCCGACGAUCCAUCUACACCACAGCAAGUGCUAAGACACCCCCCCGGUCUCCUGAGAAACACACAGCAAUAGCGUUCAACUUUGAGGCGGGUGUCCACCAGUACAUUGACGCAGACACAGAUGAUGAGGGCAACAGAGGAUUGAGCAUCA
B7: chr2:226864888:226864989:+|CDS|ENSG00000144468|unk|FALSE|unique (ssRNA)
RNA: GGGAGUUCUACAGUCCGACGAUCUGCUGAUGAUUGGCAUUUGUAUUUCAAUAUGGCAUCCAUGCUCUGGAAAGGAAUAAAUCUAGAAAGAAGACUGGGAAGUAGAUGGUUUGCCUAUGUUAUCACCGCAUUUUCUGUACUUACCAACAGAGGAUUGAGCAUCA
B8: chr8:122973292:122973393:+|3pUTR|ENSG00000178764|msi1|FALSE|unique (ssRNA)
RNA: GGGAGUUCUACAGUCCGACGAUCAGAGAUGGUCUCUCCCCAGCCAUGGGCCACCCUUGCCAGUGACUCCAAGUGGAACUACUUAGCUCGCGUGUGCCUGGAGGGUGCGGGAAGUCCAGCGACUCUCAGACGCACCUCCCAGAGCAACAGAGGAUUGAGCAUCA
B9: chr10:121957106:121957207:-|3pUTR|ENSG00000107672|msi1|total|mutant (ssRNA)
RNA: GGGAGUUCUACAGUCCGACGAUCUGUAUCGUACAUAUUGUAUGAUUCAACAUUUUUAAAGGCAGAUUGUUUUCCGUAAAAUGCCGCUUUUGACCGUUAAUAAAUUUGUCAUGGUUGUCUUUGAUUAAAGGAAACUCACCGCCACAACAGAGGAUUGAGCAUCA
B10: chr10:87746157:87746259:+|3pUTR|ENSG00000198682|unk|total|mutant (ssRNA)
RNA: GGGAGUUCUACAGUCCGACGAUCAACUGAAGACCAAAUCUCCGCAGGUAAAAGCAAUAUUCUUAUACAUUUCAUAAUAAAAUCCGCUCUAUGUAUUUUCUACUGCACCUGAGCAGGCAGGUCCCAGAUUUCUUAAGGCUUUGUCAACAGAGGAUUGAGCAUCA
B11: chr8:103427116:103427218:+|CDS|ENSG00000164934|unk|FALSE|bound_elsewhere (ssRNA)
RNA: GGGAGUUCUACAGUCCGACGAUCGUAUACUGGGAUUGAUCAUCACUGGAAAGAAGCUGUUUUUGCCACAUGUGGACAGCAAGUAGACAUUUGGGAUGAACAAAGAACUAAUCCUAUAUGUUCAAUGACCUGGGGAUUUGACAGCAACAGAGGAUUGAGCAUCA
B12: chr17:82057505:82058235:-|three_prime_utr|ENSG00000169718|control|control|control (ssRNA)
RNA: GGGAGUUCUACAGUCCGACGAUCUUGGGGCCAGUGGGGGCUUCUGAACAACAGGAUACAUCUAAAUGAAGGCAGCAUCUGGGUAGACAAAAGUGGGGGCUUAGGUCCCCUCCCCACCUCCCCUAGGCGCCUCCAUAGGCAAGUCAACAGAGGAUUGAGCAUCA
B13: chr2:216674409:216674600:-|3pUTR|ENSG00000115461|msi1|total|mutant (ssRNA)
RNA: GGGAGUUCUACAGUCCGACGAUCUCAUGGCAUGACACAGCGGAGACCGCCUCCAACAACGAAUUUGGGGCUACGAAGAGGAACCGCGAAAAAGCAAAUCUGUUUCAACUGAUGGGAACCCUACCGCUACCGAACUUGGGGGCUCAACAGAGGAUUGAGCAUCA
B14: ENSG00000088387:stop:overlap|stop_codon|ENSG00000088387|stop_codon|NA|stop_codon (ssRNA)
RNA: GGGAGUUCUACAGUCCGACGAUCACGCUCCAUGCUCUUGUGGGCUUCUCUCCACCAUCACUCUGAAAGUGUCUUGGAGCCAAUAGUUGGUGAACGUGUCACACUUGUGUGGUAGGACCUUGAAGUCUAAGUUGCUUUCCUGAGCAACAGAGGAUUGAGCAUCA
B15: chr1:228494639:228494729:+|3pUTR|ENSG00000168159|msi1_unk|total|mutant (ssRNA)
RNA: GGGAGUUCUACAGUCCGACGAUCGCCAUCGUGUCUCAUCUUGCUGUUAUCUCCCGCUCUUUCCCUCCUCCCAUUUCCUUCCGCCGUUGAAUUUUGCAAAGCUUGCCGCAGCCGCUCAGUUGCCUGCAGCAUCCUUGUGUGCCGCAACAGAGGAUUGAGCAUCA
B16: chr10:99879964:99880065:-|CDS|ENSG00000107554|unk|FALSE|bound_elsewhere (ssRNA)
RNA: GGGAGUUCUACAGUCCGACGAUCCAGAUGCCCUUCAGACCCAGACUCCACCUCCCAGCCAAGGUCAGGGGACUCUGCAGAUGUAGCUAGAGAUGUAAAGCAACCCACUGCCACGCCGAGGAGCUACCGGAACUUCAGGCAUCCCAACAGAGGAUUGAGCAUCA
B17: chr2:206003504:206003605:-|3pUTR|ENSG00000114933|msi1|FALSE|unique (ssRNA)
RNA: GGGAGUUCUACAGUCCGACGAUCGGUCGUGUGAGUAGCACAACCUUUUUCUGCUAAAAGUUAGCCCAAGAAGAAACAGAACAUAGAAAGCUUGGAUUCCCGUCAGUGAGGUAGGGAUGUCCUAAAAAGCUUGCCUGGGAUGACCAACAGAGGAUUGAGCAUCA
B18: chr11:35726083:35726184:+|CDS|ENSG00000166326|msi1|FALSE|bound_elsewhere (ssRNA)
RNA: GGGAGUUCUACAGUCCGACGAUCGAGGCAAUGGCCACAGCUCAUGUGACUGAGAUACUGGCAGACAUCCAAUCCCACAUGGAUAGGUUGAUGACUCAGAUGGCCCAAGCCAAGGAACAACUUGAUACCUCUAAUGAAUCAGCUCAACAGAGGAUUGAGCAUCA
B19: ENSG00000124766:be:win_801|CDS|ENSG00000124766|bound_else_gene|NA|bound_elsewhere_windowed (ssRNA)
RNA: GGGAGUUCUACAGUCCGACGAUCCUCGGCCUCCGCCUCCUCGGCAGCCUCGGCCUCCGCAGCGCUCGCGGCCCCGGGCAAGCACCUGGCGGAGAAGAAGGUGAAGCGCGUCUACCUGUUCGGCGGCCUGGGCACGUCGUCGUCCAACAGAGGAUUGAGCAUCA
B20: chr1:109011400:109011505:-|CDS|ENSG00000085433|unk|FALSE|unique (ssRNA)
RNA: GGGAGUUCUACAGUCCGACGAUCGUCAUGGUUGCAGAAUUCAUCCCUGCUGAUAGGAAGCUAAGUGAAGCUGGUUUUAAGGCUAGUAACAAUCGUUUAUUUCAGCUUGUAAUGAAAGGCCUGCUUUAUGAAUGCUGUGUAGAACAACAGAGGAUUGAGCAUCA
B21: chr1:54031757:54031935:-|3pUTR|ENSG00000116209|msi1|total|mutant (ssRNA)
RNA: GGGAGUUCUACAGUCCGACGAUCUCCGCUAUGAGCUGAUCAUUGCUCCUUCUCACCUCCUGCCAUGAUACUGUCAGUUACCUCCGUUAACAAGCUGAAUAUUCCGCCGAAAUGAUGCUUCUGCUCAGGAAUGGCCCACAAAUCCAACAGAGGAUUGAGCAUCA
B22: ENSG00000070961:be:win_4151|3pUTR|ENSG00000070961|bound_else_gene|NA|bound_elsewhere_windowed (ssRNA)
RNA: GGGAGUUCUACAGUCCGACGAUCGAUGGGAAGCUUCCUUAUAACUGAUGCAGAGAAAAAUUAGUCCUUCAAAUACUGCUGUAUUUUCAGGAAAAAAAAAAAAAGGGGUGUUUCUAUUGAAACUGUACUAAAUUUUUGCCUACACAACAGAGGAUUGAGCAUCA

Target: T1, UNK ZnF1-6 (called full-length)
Assay: nsRBNS (natural sequence RNA bind-n-seq); RBNS binding buffer (assumed for nsRBNS): 25 mM Tris pH 7.5, 150 mM KCl, 3 mM MgCl2, 0.01% Triton X-100, 500 ug/ml BSA, 20 U/ml SUPERase-In, 4 C; UNK is unkempt and MSI1 is Musashi-1; names of the RNAs are library labels; protein concentration not given here; high values mean tight binding

Binder	binding signal [enrichment R]
B1	0.262
B2	0.533
B3	0.614
B4	0.501
B5	0.758
B6	0.782
B7	0.279
B8	0.759
B9	0.294
B10	0.876
B11	0.575
B12	0.741
B13	0.654
B14	0.367
B15	0.921
B16	1.07
B17	0.498
B18	0.521
B19	0.655
B20	0.864
B21	0.515
B22	0.824
